Measurements from EP0243717A1 (priority 1986, dated 1987).
In brackets after ≈: the same amount, converted by molar mass. Several values for one entry are separate records, joined by “and”; a condition that tells them apart may be missing. Equal values may be shown once. Read-outs that look alike come from different tables or passages of the source.

Legend:
[1] = system: Treponema hyodysenteriae DJ70 P-3; details: for Lesion: mice with lesion/mice; for ED50: Table 1; for ED50 / Fifty-percent effective dosages (ED50): CF-1 mice, administration through drinking water; for Curative ratios: Table 2; for Fifty-percent effective dosages (ED50): list after b26
Experimental: Groups of seven-week old mice (CF-1) are orally infected with Treponema hyodensenteriae DJ 70 P-3 as the test pathogen, each group consisting of five mice. The mice are fasted beginning one day before the bacterial infection, and hygromycin A is administered to them in drinking water at the dosages of 60, 30, 15, 7.5, 3.7, 1.8 and 0.9 µg/ml. The bacterial infection is effected on the first and second days after fasting. The drug is administered through drinking water for six consecutive days after the first bacterial infection. On the sixth day of the administration the test animals are necropsied, and presence of Treponema hyodysenteriae in the contents of their digestive organs are determined by three days' cultivation in blood agar. As the positive control, Lincomycin (60-3.7 pg/ml) Dynamutilin, lankacidin C and olaquindox (60-7.5 µg/ml, respectively) are administered through drinking water at the concentrations indicated. As the negative control, untreated group allowed to freely drink water.

[2] = system: A. laidlawii KB 175 (Bm-1); experiment: microbe, parasite or virus in culture; details: Medium D
Text: (§1) For reference, the minimum growth inhibition concentrations (MIC) to various bacteria of above five drugs and Lankacidin C are shown in Table 3.

[3] = system: Acholeplasma laidlawii KB 174 (PG-8); experiment: microbe, parasite or virus in culture; details: Medium D
Text: as §1

Aspergillus niger KF-105 = experiment: microbe, parasite or virus in culture; details: Medium E
Text: as §1

[4] = system: B. cereus KB 143 (IFO 3001); experiment: microbe, parasite or virus in culture; details: Medium A
Text: as §1

[5] = system: B. megaterium KB 144 (IFO 12108); experiment: microbe, parasite or virus in culture; details: Medium A
Text: as §1

[6] = system: Bacillus subtilis KB 211 (ATCC 6633); experiment: microbe, parasite or virus in culture; details: Medium A
Text: as §1

[7] = system: C. difficile KB 258 (ATCC 9689); experiment: microbe, parasite or virus in culture; details: Medium B
Text: as §1

[8] = system: C. novyi KB 136 (ILD 140); experiment: microbe, parasite or virus in culture; details: Medium B
Text: as §1

Candida albicans KF-1 = experiment: microbe, parasite or virus in culture; details: Medium E
Text: as §1

[9] = system: E. coli KB 176 (NIHJ JC-2); experiment: microbe, parasite or virus in culture; details: Medium A
Text: as §1

[10] = system: E. coli KB 198 (ML^r,LCM^s); experiment: microbe, parasite or virus in culture; details: Medium A
Text: as §1

[11] = system: Escherichia coli KB 213 (NIHJ); experiment: microbe, parasite or virus in culture; details: Medium A
Text: as §1

[12] = system: Fusobacterium varium KB 234 (ATCC 8501); experiment: microbe, parasite or virus in culture; details: Medium B
Text: as §1

[13] = system: Haemophilus pleuropneumoniae KB 282; experiment: microbe, parasite or virus in culture; details: Medium C
Text: as §1

[14] = system: Klebsiella pneumoniae KB 214 (IFO 10031); experiment: microbe, parasite or virus in culture; details: Medium A
Text: as §1

[15] = system: M. gallisepticum KB 171 (S-6); experiment: microbe, parasite or virus in culture; details: Medium D
Text: as §1

[16] = system: M. gallisepticum KB 172 (333-P); experiment: microbe, parasite or virus in culture; details: Medium D
Text: as §1

M. pneumoniae KB-173 = experiment: microbe, parasite or virus in culture; details: Medium D
Text: as §1

[17] = system: Micrococcus luteus KB 212 (ATCC 9341); experiment: microbe, parasite or virus in culture; details: Medium A
Text: as §1

[18] = system: Mucor racemosus KF 223 (IFO 4581); experiment: microbe, parasite or virus in culture; details: Medium E
Text: as §1

[19] = system: Mycobacterium smegmatis KB 42 (ATCC 607); experiment: microbe, parasite or virus in culture; details: Medium A
Text: as §1

[20] = system: Mycoplasma gallisepticum KB 170 (KP-13); experiment: microbe, parasite or virus in culture; details: Medium D
Text: as §1

[21] = system: Penicillium herquei KE 227 (IFO 4647); experiment: microbe, parasite or virus in culture; details: Medium E
Text: as §1

[22] = system: Proteus vulgaris KB 127 (IFO 3167); experiment: microbe, parasite or virus in culture; details: Medium A
Text: as §1

[23] = system: Pseudomonas aeruginosa KB 115 (IFO 3080); experiment: microbe, parasite or virus in culture; details: Medium A
Text: as §1

[24] = system: S. aureus KB 199 (ML^r,TC^r); experiment: microbe, parasite or virus in culture; details: Medium A
Text: as §1

[25] = system: S. aureus KB 34 (FDA 209p); experiment: microbe, parasite or virus in culture; details: Medium A
Text: as §1

[26] = system: S. cerevisiae KF 237 (ATCC 9763); experiment: microbe, parasite or virus in culture; details: Medium E
Text: as §1

Saccharomyces sake KF 26 = experiment: microbe, parasite or virus in culture; details: Medium E
Text: as §1

[27] = system: Staphylococcus aureus KB 210 (ATCC 6538p); experiment: microbe, parasite or virus in culture; details: Medium A
Text: as §1

[28] = system: Treponema hyodysenteriae B 78; experiment: microbe, parasite or virus in culture; details: Medium F
Text: as §1

[29] = system: Treponema hyodysenteriae DJ 70 P-3; experiment: microbe, parasite or virus in culture; details: Medium F
Text: as §1

[30] = system: Trichophyton interdigitale KF 62; experiment: microbe, parasite or virus in culture; details: Medium E
Text: as §1

[31] = system: pasteurella hemolytica KB 281; experiment: microbe, parasite or virus in culture; details: Medium C
Text: as §1

[32] = system: Treponema hyodysenteriae B 204
[33] = Dosage 7.5 μg/mℓ in drinking water
[34] = Dosage 15 μg/mℓ in drinking water
[35] = Dosage 30 μg/mℓ in drinking water
[36] = Dosage 60 μg/mℓ in drinking water
[37] = Treatment D, carbadox 50 g/ton feed, Total
[38] = Treatment D, carbadox 50 g/ton feed, per group (Group No. 4, 7)

What does the source list for `Cc1c(C(=O)NCCO)[n+]([O-])c2ccccc2[n+]1[O-]` [Olaquindox]?
Noninfective (%) [1, 33]: 0%; Presence of T. hyo. 1st day [1, 33]: 5/5; Presence of T. hyo. 3rd day [1, 33]: 5/5; Lesion [1, 33]: 5/5; Noninfective (%) [1, 34]: 0%; Presence of T. hyo. 1st day [1, 34]: 5/5; Presence of T. hyo. 3rd day [1, 34]: 5/5; Lesion [1, 34]: 5/5; Noninfective (%) [1, 35]: 0%; Presence of T. hyo. 1st day [1, 35]: 5/5; Presence of T. hyo. 3rd day [1, 35]: 5/5; Lesion [1, 35]: 5/5; Noninfective (%) [1, 36]: 0%; Presence of T. hyo. 1st day [1, 36]: 3/5; Presence of T. hyo. 3rd day [1, 36]: 5/5; Lesion [1, 36]: 3/5; ED50 [1]: >60 µg/mL; Curative ratios ([1]; Dosage 7.5 μg/mℓ): 0%; Curative ratios ([1]; Dosage 15 μg/mℓ): 0%; Curative ratios ([1]; Dosage 30 μg/mℓ): 0%; Curative ratios ([1]; Dosage 60 μg/mℓ): 0%; Fifty-percent effective dosages (ED50) [1]: >60 µg/mL

With `CC(=O)C(=O)N[C@@H]1/C=C(C)/C=C/[C@@H](O)C/C=C(C)/C=C/[C@@H](O)C[C@H]2OC(=O)[C@]1(C)C(=O)[C@@H]2C` [Lankacidin C] as the compound, how does the “Noninfective (%)” value [1, 33] read?
Its value is 0%.

And the “Presence of T. hyo. 1st day” value [1, 33]?
The value was 3/5.

What about the “Presence of T. hyo. 3rd day” value [1, 33] of the same compound?
Its value is 5/5.

What about the Lesion [1, 33] of the same compound?
Its Lesion is 3/5.

And the “Noninfective (%)” value [1, 34]?
Its value is 0%.

And the “Presence of T. hyo. 1st day” value [1, 34]?
The value was 0/5.

What about the “Presence of T. hyo. 3rd day” value [1, 34] of the same compound?
The value was 5/5.

And the Lesion [1, 34]?
The Lesion was 0/5.

And the “Noninfective (%)” value [1, 35]?
Its value is 60%.

And the “Presence of T. hyo. 1st day” value [1, 35]?
The value was 0/5.

What about the “Presence of T. hyo. 3rd day” value [1, 35] of the same compound?
Its value is 2/5.

And the Lesion [1, 35]?
The Lesion was 0/5.

What about the “Noninfective (%)” value [1, 36] of the same compound?
Its value is 80%.

And the “Presence of T. hyo. 1st day” value [1, 36]?
The value was 0/5.

And the “Presence of T. hyo. 3rd day” value [1, 36]?
The value was 1/5.

What about the Lesion [1, 36] of the same compound?
The Lesion was 0/5.

What about the ED50 [1] of the same compound?
The ED50 was 40.5 µg/mL (≈ 88.1 µM).

And the Curative ratios ([1]; Dosage 7.5 μg/mℓ)?
The Curative ratios was 0%.

What about the Curative ratios ([1]; Dosage 15 μg/mℓ) of the same compound?
The Curative ratios was 0%.

What about the Curative ratios ([1]; Dosage 30 μg/mℓ) of the same compound?
Its Curative ratios is 60%.

And the Curative ratios ([1]; Dosage 60 μg/mℓ)?
Its Curative ratios is 80%.

And the “Fifty-percent effective dosages (ED50)” value [1]?
Its value is 40.5 µg/mL.

And the MIC [2]?
The MIC was 25 µg/mL (≈ 54.4 µM).

And the MIC [3]?
Its MIC is 25 µg/mL (≈ 54.4 µM).

And the MIC (Aspergillus niger KF-105)?
Its MIC is over 100 µg/mL.

And the MIC [4]?
Its MIC is 100 µg/mL (≈ 218 µM).

And the MIC [5]?
The MIC was over 100 µg/mL.

And the MIC [6]?
The MIC was over 100 µg/mL.

What about the MIC [7] of the same compound?
The MIC was 25 µg/mL (≈ 54.4 µM).

What about the MIC [8] of the same compound?
The MIC was 0.4 µg/mL (≈ 0.87 µM).

What about the MIC (Candida albicans KF-1) of the same compound?
Its MIC is over 100 µg/mL.

And the MIC [9]?
Its MIC is over 100 µg/mL.

What about the MIC [10] of the same compound?
Its MIC is 0.78 µg/mL (≈ 1.7 µM).

What about the MIC [11] of the same compound?
Its MIC is over 100 µg/mL.

What about the MIC [12] of the same compound?
Its MIC is over 100 µg/mL.

What about the MIC [13] of the same compound?
The MIC was 6.25 µg/mL (≈ 13.6 µM).

What about the MIC [14] of the same compound?
The MIC was over 100 µg/mL.

And the MIC [15]?
The MIC was 25 µg/mL (≈ 54.4 µM).

And the MIC [16]?
The MIC was 50 µg/mL (≈ 109 µM).

What about the MIC (M. pneumoniae KB-173) of the same compound?
Its MIC is 25 µg/mL (≈ 54.4 µM).

And the MIC [17]?
Its MIC is under 0.2 µg/mL.

And the MIC [18]?
The MIC was over 100 µg/mL.

What about the MIC [19] of the same compound?
Its MIC is over 100 µg/mL.

And the MIC [20]?
Its MIC is 50 µg/mL (≈ 109 µM).

What about the MIC [21] of the same compound?
Its MIC is over 100 µg/mL.

What about the MIC [22] of the same compound?
The MIC was over 100 µg/mL.

What about the MIC [23] of the same compound?
The MIC was over 100 µg/mL.

And the MIC [24]?
The MIC was 1.56 µg/mL (≈ 3.39 µM).

What about the MIC [25] of the same compound?
Its MIC is 1.56 µg/mL (≈ 3.39 µM).

And the MIC [26]?
The MIC was over 100 µg/mL.

And the MIC (Saccharomyces sake KF 26)?
The MIC was over 100 µg/mL.

And the MIC [27]?
Its MIC is 0.4 µg/mL (≈ 0.87 µM).

And the MIC [28]?
Its MIC is 0.78 µg/mL (≈ 1.7 µM).

And the MIC [29]?
Its MIC is 0.01 µg/mL (≈ 0.0218 µM).

What about the MIC [30] of the same compound?
Its MIC is over 100 µg/mL.

What about the MIC [31] of the same compound?
Its MIC is 25 µg/mL (≈ 54.4 µM).

Which “General appearance : No of pig days Depressed” value [32, 37] does the source give for `COC(=O)N/N=C/c1c[n+]([O-])c2ccccc2[n+]1[O-]` [Carbadox, carbadox] here?
Its value is 3 pig days.

What about the “General appearance : No of pig days Moribund” value [32, 37] of the same compound?
Its value is 0 pig days.

And the “General appearance : No of pig days Normal” value [32, 37]?
Its value is 272 pig days.

And the “General appearance : share of pig days Depressed” value [32, 37]?
The value was 1%.

What about the “General appearance : share of pig days Normal” value [32, 37] of the same compound?
Its value is 99%.

What about the “General appearance : No of pig days Depressed” value [32, 38] of the same compound?
Its value is 1 pig days and 2 pig days.

And the “General appearance : No of pig days Moribund” value [32, 38]?
The value was 0 pig days.

And the “General appearance : No of pig days Normal” value [32, 38]?
Its value is 144 pig days and 128 pig days.

What about the “percent recovery of T. hyodysenteriae from rectal swabs, average” value ([32]; carbadox treatment group b, 50 g/ton feed) of the same compound?
The value was 8%.

What about the “lesions in large intestine (pigs with lesions)” value ([32]; group D, carbadox 50 g/ton feed, […]) of the same compound?
Its value is 10%.
